Results taken from PubChem BioAssay AID2451 (National Center for Advancing Translational Sciences (NCATS), 2010).
Values joined by “and” are separate entries in the source; they are usually repeats but may differ in a detail not shown here. Identical values can stand only once. Hit rate of the full screen: of about 290,000 compounds, about 2,100 (0.72%) were called active. This list was built around the results that the source calls inconclusive (neither active nor inactive); the mix of calls is not that of the screen. The call rests on the fitted dose curve; in most records, active means well fitted inhibition curve with a large enough effect; inconclusive means small, poorly fitted or top-dose-only effect, or effect the other way; inactive means flat fitted curve, though single readings scatter. Where the call is inconclusive, the potency comes from a doubtful curve fit.

molecular target: Fructose-bisphosphate aldolase (Giardia intestinalis (strain ATCC 50803 / WB clone C6)) (UniProt A8B2U2); assay: qHTS Assay for Inhibitors of Fructose-1,6-bisphosphate Aldolase from Giardia Lamblia; conditions: purified Giardia FBPA; activity, negative = inhibition: at 59.6 µM (top of the series) unless noted; further: nearly all actives have a fitted effect of over 55% in size
How it was run: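 40 nM FBPA preincubated 10 min at RT with compound (up to 57.5 uM final), then substrate plus GAPDH/TPI/NAD/arsenate coupling and diaphorase/resazurin added. Fluorescence read after 20 min at RT, 525/598 nm.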
On the % scale 0 is the no-effect control and ±100 the full control effect; potency means the concentration at half of the fitted maximal effect; tags describe the fitted curve by direction and shape.

Sequence of UniProt A8B2U2 (A8B2U2 whole entry, looked up): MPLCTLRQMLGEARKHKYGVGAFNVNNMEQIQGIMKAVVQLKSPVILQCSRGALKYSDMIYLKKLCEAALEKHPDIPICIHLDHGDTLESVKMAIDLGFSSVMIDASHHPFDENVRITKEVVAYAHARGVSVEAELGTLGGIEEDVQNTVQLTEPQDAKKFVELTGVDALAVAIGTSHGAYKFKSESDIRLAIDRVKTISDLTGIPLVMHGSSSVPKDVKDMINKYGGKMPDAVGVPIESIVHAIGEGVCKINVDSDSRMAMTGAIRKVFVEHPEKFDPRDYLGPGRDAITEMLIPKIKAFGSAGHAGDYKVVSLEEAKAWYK

Structure (SMILES) | Potency | activity, negative = inhibition
Cc1cccc2c(N)c3c(nc12)N(C)CC3 | active: 15.8 µM | 
Oc1ccc(NCc2ccc(OCc3ccccc3)cc2)cc1 | inconclusive: 35.5 µM [inhibitor, single point] | 
COc1ccc(C(=O)NCCCNC(=O)c2ccccn2)cc1Br |  | inactive: -3.21%
O=C(Cc1cnn(-c2ccccc2)c1)c1ccc(O)c(O)c1O | active: 3.54 µM | 
Cc1cc(F)ccc1NCC(=O)Nc1ccccc1Br | inconclusive: 25.1 µM [inhibitor, single point] | 
O=C1/C(=C\c2cc(Cl)c(O)c(Cl)c2)SC(=S)N1Cc1ccccc1 |  | inactive: -9.33%
O=C(c1ccccc1Cl)N(C(=O)c1ccccc1Cl)c1nccc(-c2cccs2)n1 | active: 7.94 µM | 
CCN(CC)S(=O)(=O)c1cc(NC(=O)c2cc(-c3ccccn3)nc3ccccc23)ccc1C |  | inactive: -11.2%
COc1ccc(CCN2C(=O)/C(=C\c3ccco3)SC2=S)cc1OC | inconclusive: 17.7 µM [inhibitor, single point] | 
O=C(c1cccnc1)N1CCN(Cc2ccc3ccccc3c2)CC1 | inconclusive: 25.1 µM [inhibitor, partial curve] | 
O=C(Nc1ccccc1)c1ccc(S(=O)(=O)NCc2cccnc2)cc1 |  | inactive: 7.24%
O=C(O)CC1S/C(=N/N=C/c2ccc(-c3ccc(Cl)cc3[N+](=O)[O-])o2)NC1=O (centres undefined) | inconclusive: 3.97 µM [inhibitor, full curve] | 
CSc1cccc(NC(=O)c2ccco2)c1 |  | inactive: -4.19%
CCN1CCN(CC(=O)Nc2nc3ccccc3s2)CC1 | active: 10 µM | 
CCOC(=O)N1CCN(Cc2ccc3c(c2)OCO3)CC1 | inconclusive: 25.1 µM [inhibitor, partial curve, poor fit] | 
O=C(NC(=S)Nc1ccc(CN2CCCCC2)cc1)c1ccco1 |  | inactive: -29.9%
CC(NS(=O)(=O)c1ccc(Br)cc1)C(c1cccs1)N1CCN(C)CC1 (centres undefined) |  | inactive: 3.62%
O=[N+]([O-])/C(C(Cl)=C(Cl)Cl)=C1\Nc2ccccc2O1 | inconclusive: 19.9 µM [inhibitor, single point] | 
NC(=S)N/N=C/c1coc2ccc(O)cc2c1=O | inconclusive: 15.8 µM [inhibitor, partial curve] | 
N#C/C(=C/c1ccc(N2CCOCC2)o1)c1ccc(Cl)cc1 | inconclusive: 5.61 µM [inhibitor, full curve] | 
CCC(C)c1ccc(C(C)NC(=S)NC2CCCCC2)cc1 (centres undefined) | inconclusive: 20 µM [activator, partial curve] | 
c1ccc2c(c1)nc(-c1ccncc1)n2CCNc1nc(CN2CCCCC2)cs1 | inconclusive: 28.2 µM [inhibitor, single point] | 
CCc1ccc(OCC(=O)NC(NC(=S)Nc2ccccc2C)C(Cl)(Cl)Cl)cc1 (centres undefined) |  | inactive: 4.44%
O=C(CN1C(=O)NC2(CCOc3ccccc32)C1=O)Nc1ccc(F)c(F)c1F (centres undefined) |  | inactive: -3.91%
COc1ccc(C(=O)N/N=C/c2ccc(OC)c(CSc3ccccn3)c2)cc1 |  | inactive: -6.07%

Structure (SMILES) | Potency | activity, negative = inhibition
COc1cccc2cc(C(=O)NNC(=O)c3ccc(Br)cc3)c(=O)oc12 |  | inactive: -1.95%
O=C(OC(C(=O)NCc1ccccc1)c1ccccc1F)c1ccco1 (centres undefined) |  | inactive: -5.42%
O=[N+]([O-])c1ccc(O)c(-c2nn[nH]n2)c1 | inconclusive: 0.889 µM [inhibitor, full curve] | 
CCOc1ccc(/C=C/C(=O)c2cccs2)cc1 |  | inactive: -0.402%
CC(C)C(=O)Nc1ccc(-c2nc3cccnc3o2)cc1 |  | inactive: 6.49%
O=C(/C=C/c1ccccc1)NC(=S)N1C[C@H]2C[C@H](C1)c1cccc(=O)n1C2 | inconclusive: 12.6 µM [inhibitor, partial curve] | 
O=C(c1ccc(C(F)(F)F)cc1)N1CCC(=O)N(C(COCc2ccc(C(F)(F)F)cc2)Cc2ccccc2)CC1 (centres undefined) |  | inactive: 12.7%
COC(=O)C(c1ccccc1Cl)N1CCc2sccc2C1 (centres undefined) | inconclusive: 19.9 µM [inhibitor, partial curve] and inconclusive: 17.7 µM [inhibitor, single point] | 
OC(CNCc1ccc(F)cc1)(c1ccc(F)cc1)c1ccc(F)cc1 |  | inactive: 3.61%
O=C(OC1Cc2c(O)cc(O)cc2OC1c1cc(O)c(O)c(O)c1-c1c(C2Oc3cc(O)cc(O)c3CC2O)cc(O)c(O)c1O)c1cc(O)c(O)c(O)c1 (centres undefined) | inconclusive: 22.3 µM [inhibitor, single point] | 
O=C(NC(Cc1ccccc1)C(=O)O)C1CCN(S(=O)(=O)c2ccccc2C(F)(F)F)CC1 (centres undefined) | inconclusive: 14.1 µM [activator, partial curve] | 
CCOc1ccc(S(=O)(=O)Nc2ncn[nH]2)cc1 | inconclusive: 28.2 µM [inhibitor, single point] | 
N#Cc1cc([N+](=O)[O-])ccc1Oc1cccc(/C=N/NC(=O)c2cccc(Cl)c2)c1 | inconclusive: 15.8 µM [inhibitor, partial curve] | 
COc1cnc(-c2ccccn2)[nH]c1=O | active: 3.54 µM | 
CC1(C)Cc2c(ccc3ccccc23)C2=C(C(=O)N3CCCC3)C(=O)C(=O)N21 | inconclusive: 7.92 µM [inhibitor, partial curve] | 
CCOC(=O)c1sc(/N=C/C2=C(O)CC(C)(C)CC2=O)c(C(=O)OCC)c1C | inconclusive: 35.4 µM [inhibitor, single point] | 
O=C(NCC1CCCO1)/C(=C\c1cccc([N+](=O)[O-])c1)NC(=O)c1ccccc1 (centres undefined) |  | inactive: 4.79%
Clc1cccc(Cl)c1OCCOCCNCc1ccccc1 | inconclusive: 17.8 µM [inhibitor, partial curve] | 
O=S(=O)(c1ccc2c(c1)OCCO2)N1CCN(c2ncnc3sccc23)CC1 |  | inactive: 1.75%
Nc1ccc(/C=C/C(=O)c2cccs2)cc1 |  | inactive: -1.73%
O=C(COC(=O)CCc1c[nH]c2ccccc12)NC1CCS(=O)(=O)C1 (centres undefined) | inconclusive: 31.5 µM [inhibitor, single point] | 
CCCn1c(SCC(=O)NCc2ccco2)nnc1-c1ccncc1 |  | inactive: -5.22%
c1ccc2c3c(cc(N4CCOCC4)c2c1)OC1(N2CCOCC2)CCCCC1O3 (centres undefined) | active: 0.561 µM | 
Cc1cccc(C2(c3cccc(C)c3)CC2C(=O)Nc2ccc([N+](=O)[O-])cc2O)c1 (centres undefined) | inconclusive: 15.8 µM [inhibitor, single point] | 
